# Test results as given in PubChem BioAssay AID485344 (National Center for Advancing Translational Sciences (NCATS), 2010).
# Out of some 340,000 compounds screened, about 6,900 (2%) were called active. No stated cut-off is given here; in the data, active means inhibition above about 30%; inactive means below that, where a call was filed. Only a part is listed here, and it is no random draw. The source gives no active or inactive call for entries shown without one.
# Target: D(2) dopamine receptor (Homo sapiens) (UniProt P14416)
# Test: HTS Assay for Allosteric Antagonists of the Human D2 Dopamine Receptor: Primary Screen for Antagonists; further: 0% is about no effect
# Details: HEK293 TREx D2 cells, calcium flux, dopamine EC80; at 10 µM; stronger effect = higher value
# Procedure, shortened: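 Read-out: kinetic calcium fluorescence (1 cycle/s) in inducible HEK293 T-REx D2 cells after an EC80 dopamine addition that followed 180 s compound preincubation. Loss of the dopamine response indicates antagonism.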
# Sequence of UniProt P14416 (P14416 whole entry, looked up): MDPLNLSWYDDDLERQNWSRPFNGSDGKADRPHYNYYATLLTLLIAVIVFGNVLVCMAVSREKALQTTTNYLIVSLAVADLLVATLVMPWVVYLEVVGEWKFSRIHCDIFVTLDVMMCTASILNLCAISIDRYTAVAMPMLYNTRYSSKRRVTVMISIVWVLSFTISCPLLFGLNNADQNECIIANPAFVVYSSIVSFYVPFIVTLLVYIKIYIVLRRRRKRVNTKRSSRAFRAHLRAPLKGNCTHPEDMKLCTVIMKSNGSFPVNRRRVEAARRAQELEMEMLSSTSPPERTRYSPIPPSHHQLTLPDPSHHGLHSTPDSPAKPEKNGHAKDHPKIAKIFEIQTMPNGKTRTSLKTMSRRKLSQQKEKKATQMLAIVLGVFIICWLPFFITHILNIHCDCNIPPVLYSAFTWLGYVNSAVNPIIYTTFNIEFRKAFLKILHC
row,Structure (SMILES),inhibition
1,CCc1ccccc1NC(=S)NC1CC2CCC(C1)N2Cc1ccc(F)cc1 (centres undefined),active: 78.3%
2,CC1CCC(Nc2ncnc3onc(-c4ccc(F)cc4)c23)CC1 (centres undefined),-0.234%
3,O=C(O)c1c(-c2ccccc2)oc2ccc(OCc3ccc(Cl)c(Cl)c3)cc12,-7.76%
4,CCN1CCc2c(sc(N)c2C(N)=O)C1,active: 38%
5,Cc1cc(C)cc(NS(=O)(=O)c2ccc(-n3cccn3)cc2)c1,-6.76%
6,O=C(COc1ccccc1)N1CCN(c2ccccc2)CC1,active: 30.1%
7,Cn1cc(CCC(=O)NCc2ccc(Cl)cc2)c2ccccc21,8.33%
8,COCCCNC(=O)c1oc2c(c1C)-c1nn(Cc3ccc(Cl)cc3)cc1CC2,-25.6%
9,COc1ccc(-c2cccc(NS(=O)(=O)c3ccc(C)s3)c2)nn1,0.857%
10,Cc1ccc(CSCCNC(=O)c2ccc(C)cc2)cc1,active: 31.9%
11,COc1cccc(N2C(=O)CSC23C(=O)N(Cc2ccccc2)c2ccccc23)c1 (centres undefined),-2.73%
12,Cn1ccnc1SCC(=O)Nc1ccc(Cl)cn1,active: 30.8%
13,Cc1ccc(C)c(CSc2cn(CC(=O)N3CCCCCC3)c3ccccc23)c1,0.925%
14,CCCCS(=O)(=O)N1C2=NC(C(=O)OC)=C(C(=O)OC)[C@@H]3N(C)c4ccc(OC)cc4[C@]23C[C@H]1C(=O)OC,active: 34.2%
15,COc1ccc(-c2csc3nc(-c4ccc(F)cc4)oc(=O)c23)cc1,8.03%
16,COc1ccc(NC(=O)CCCc2nnc3n(CCC(C)C)c(=O)c4sccc4n23)c(OC)c1,-5.2%
17,COCCNC(=O)c1ccc(-n2c(-c3ccccc3)cc3c2CCCCC3)cc1,8.05%
18,COc1ccccc1NC(=O)CN1CCN(c2ccccc2)CC1,active: 39.1%
19,COc1ccc(C(=O)/C=C/c2cn(CC(O)CN(CC(C)C)CC(C)C)c3ccccc23)cc1 (centres undefined),-6.15%
20,CCCC(=O)N(c1ccc2oc(C)c(C(C)=O)c2c1)S(=O)(=O)c1ccc(C)cc1,0.931%
21,CCOC(=O)c1nc(N2CCN(c3ccc(F)cc3)CC2)c2c(C)noc2n1,0.274%
22,CCn1c(=O)n(-c2ccc(F)c(Cl)c2)c(=O)c2c3c(sc21)CN(C(C)=O)CC3,1.75%
23,COc1cccc(C(=O)Nc2ccc(-c3nc4ccccc4s3)cc2Cl)c1,-11.1%
24,CCS(=O)(=O)N1CCC(n2c(C)nc3cccnc32)CC1,7.32%
25,Cc1ccc(Cl)c(NC(=O)Nc2csc3c2CCCC3)c1,-8.8%

row,Structure (SMILES),inhibition
1,COc1cc2oc(=O)c(CC(=O)N3CCCCC3)c(C)c2cc1OC,-13.1%
2,CC(C(=O)NCC1CCCCC1)N1CCc2ccccc2C1 (centres undefined),active: 54.4%
3,COc1ccc(OC)c(CCNC(=O)c2ccc(NC3=NC4CS(=O)(=O)CC4S3)cc2)c1 (centres undefined),active: 34.5%
4,Cc1ccc(S(=O)(=O)c2nc(-c3ccccc3Cl)oc2N2CCCCCC2)cc1,-13.2%
5,CCc1ccc(NC(=O)C(=O)NCC(c2ccc3c(c2)OCO3)N2CCOCC2)cc1 (centres undefined),3.6%
6,COc1ccc(-c2cc(C(=O)Nc3ccn(Cc4ccc(C)cc4)n3)no2)cc1OC,-6.09%
7,COc1ccc(-c2noc(-c3ccc(NCc4cccnc4)c([N+](=O)[O-])c3)n2)cc1,8.75%
8,CCC(=O)N1CCc2cc(Br)cc(S(=O)(=O)CCC(=O)Nc3ccc(C)c(C)c3)c21,0.266%
9,O=C(NCc1ccccc1Cl)c1cnc2sc(N3CCOCC3)nn2c1=O,-5.59%
10,COC(=O)CNc1nc(Cl)nc(N2CCC(C)CC2)n1,active: 35.9%
11,CCn1cc(C(=O)NCCCN(CC(C)C)CC(C)C)c(=O)c2cc(S(=O)(=O)N(C)C3CCCCC3)ccc21,-3.88%
12,COc1ccc(NC(=O)CCc2nnc3n(C)c(=O)c4sccc4n23)cc1Cl,-3.71%
13,COc1cccc(N2C(=O)N(Cc3ccc(C#N)cc3)c3ccccc3S2(=O)=O)c1,-3.6%
14,CCc1ccccc1NC(=O)Cn1c(=O)n(CC2CCC(C(=O)NCCc3ccccc3)CC2)c(=O)c2ccccc21 (centres undefined),11.7%
15,O=S(=O)(c1ccccc1F)N1CCC(Oc2ccc(-n3cnnn3)cc2)CC1,0.147%
16,COc1cccc(NS(=O)(=O)c2ccc3[nH]cc(C(=O)NCCc4ccccc4)c(=O)c3c2)c1,-6.17%
17,CN(Cc1ccccc1)C(=O)CSc1nc2ccsc2c(=O)n1-c1ccc(F)cc1,-4.02%
18,O=C(NCc1ccc(Cl)cc1)C1CCCN(c2cnccn2)C1 (centres undefined),active: 36.2%
19,COc1cccc(CNc2nc3c(-c4ccccc4)nnn3c3ccccc23)c1,1.82%
20,COc1ccc(CCNC(=O)Cn2c(=O)n(-c3cc(OC)c(OC)c(OC)c3)c(=O)c3ccccc32)cc1OC,2.47%
21,Cc1ccc2oc(=O)c3cnn(CC(=O)N4CCN(c5cc(Cl)ccc5C)CC4)c3c2c1,15.7%
22,Cc1ccccc1C(OCCN(C)C)C1CCCCC1 (centres undefined),active: 86.8%
23,CCOc1ccc(NC(=O)c2cc(S(=O)(=O)N3CCCCC3)c[nH]2)cc1,5.33%
24,O=C(CC1SC(N2CCCCC2)=NC1=O)Nc1cccc(C(F)(F)F)c1 (centres undefined),active: 78.8%
